These results are taken from ChEMBL document CHEMBL4888484, “Replenishing the malaria drug discovery pipeline: Screening and hit evaluation of the MMV Hit Generation Library 1 (HGL1) against asexual blood stage Plasmodium falciparum ,using a nano luciferase reporter read-out” (2022).

The whole screen tested about 150,000 compounds, of which about 540 (0.36%) showed an effect of 50% or more. The list shows a part of the results.

This assay has as its system Plasmodium falciparum. In words: Primary screen in NF54 nanoGlo assay, in single point, at 2uM, 72h; a lower Z score goes with more inhibition. It counts as functional, Erythrocyte. Conditions: timepoint 72 hour.
Consider `Cc1cc(C)cc(Nc2nc(C)cc(=O)n2CC(=O)N2CCc3ccccc32)c1`, for which the % Inhibition – broadly, the drop in the measured response relative to a control, in per cent – is recorded as -7% and the Z score was found to be 1.02.
Consider `COCC(=O)N1CCC2(CC1)O[C@@H](CC(=O)NC1CCCC1)Cc1ccccc12`, for which the “% Inhibition” value was -10% and the Z score was 1.26.
Taken in the same sequence, the figures for `CC(=O)N1CCN(Cc2cccc(NC(=O)c3ccsc3)n2)CC1` were -1% and 0.16.
Taken in the same sequence, the figures for `CCn1c(C(=O)NCCC2=CCCCC2)c(N2CCCC2=O)c2cc(OC)ccc21` were -6% and 0.96.
For `CN(C)c1ccc(C(=O)N[C@H]2CCN(c3ccc(F)cc3)C2=O)cc1`, the “% Inhibition” value is listed as 0% and the Z score is reported as 0.04.
In the same order, the values of `CCNC(=O)N1CCC[C@H]1c1cc(C(C)C)no1` are 8% and -1.12.
Regarding `COc1ccc(OC)c(C2CC2C(=O)N(C)Cc2c(C)noc2C)c1` (centres undefined), the “% Inhibition” value is given as -16% and the Z score is 1.68.
Taken in the same sequence, the figures for `CCCc1n[nH]cc1C(=O)N1CC(=O)N(c2ccc(Cl)cc2)C[C@@H]1C` were -10% and 1.42.
`CN1CCC2(CCCN2C(=O)c2cccc(S(=O)(=O)N3CCCC3)c2)CC1`: the “% Inhibition” value was -2% and the Z score amounted to 0.33.
In the same order, the values of `COC(C)(C)c1cn(Cc2cnc(C)s2)nn1` are -6% and 0.97.
For the molecule `Cc1nc(C(=O)N2C[C@@H](N(C)C)CCc3cc(Br)ccc32)co1`, the “% Inhibition” value came out at 2% and the Z score is on record as -0.28.
With `c1ccc(C2(c3nc([C@H]4CN5CCC[C@H]5CO4)no3)CCCO2)cc1` (some centres undefined), the “% Inhibition” value was -7% and the Z score turned out to be 0.87.
Taken in the same sequence, the figures for `Cc1cccc(-c2ccc(CN(C(=O)Nc3ccc(C(F)(F)F)cc3)C(C)C)s2)c1` were 2% and -0.25.
Taken in the same sequence, the figures for `c1coc(-c2cc(COc3ccc4c(c3)CCC4)no2)c1` were -3% and 0.3.
In the same order, the values of `CN(C)c1ccc(C(=O)Nc2ccc3c(c2)OCCCO3)cc1` are -20% and 2.06.
Take `CN(C)C(=O)c1ccc(CNC(=O)[C@@H](c2ccccc2F)N(C)C)o1`: the “% Inhibition” value is -10% and the Z score came to 1.88.
Taken in the same sequence, the figures for `CN(C)c1cnc(C(=O)N2CCC[C@H]2C2CCOCC2)cn1` were -3% and 0.41.
In the same order, the values of `COc1cnccc1[C@H](C)NC(=O)c1cc(F)cc2nc(C)c(C)nc12` are 3% and -0.31.
In the same order, the values of `O=C(NCc1ncc(Br)cn1)[C@@H]1CCc2cccc(O)c21` are -5% and 0.84.
With `Cc1ccc(CCC(=O)NC(c2ccccc2)C(C)C(=O)O)o1` (centres undefined), the “% Inhibition” value came out at 5% and the Z score was -0.67.
In the same order, the values of `CCn1nc(C)c(-c2ccc(C(=O)N3CCCN4CCC[C@H]4C3)cc2)c1C` are -12% and 1.46.
For the molecule `Cc1ccc(NC(=O)c2cccc(OCC(F)F)n2)c(O)n1`, the “% Inhibition” value stood at 10% and the Z score is -1.13.
In the case of `CC(C)[C@@H](CO)NC(=O)[C@H](NC(=O)C(c1ccccc1)c1ccccc1)c1ccccc1`, the “% Inhibition” value was -3% and the Z score amounted to 0.42.
Taken in the same sequence, the figures for `CN(C)c1ccc(C(=O)N2CCCN(C3CCOCC3)CC2)cc1` were -9% and 1.25.
In the same order, the values of `COc1ccc2c(c1)CN(C(=O)C1CCCC1)CC[C@H]1COC(=O)N21` are 3% and -0.48.
As for `Cc1cscc1C(=O)N1CCN(C)Cc2ccccc21`, the “% Inhibition” value is on record as -15% and the Z score amounted to 3.07.
Regarding `COC[C@@H](O)CNC(=O)Nc1cc(N(C)C)n2nc(C)cc2n1`, the “% Inhibition” value is recorded as -5% and the Z score came out at 0.62.
In the same order, the values of `Cc1cccc(N(C)C(=O)c2ccc3c(=O)n4c(nc3c2)CCCCCC4)n1` are -4% and 0.67.
Turning to `Cc1cnn(C2CCCC2)c1NC(=O)N1CCO[C@H](C(N)=O)C1`, the “% Inhibition” value is recorded as -6% and the Z score is listed as 1.25.
Taken in the same sequence, the figures for `Cc1noc([C@H]2CCN(C(=O)NCCc3ccccc3)C[C@H]2NC(=O)C2CCOCC2)n1` were -12% and 1.47.
Taken in the same sequence, the figures for `O=C(c1cncc(-n2ccnn2)c1)N1CC(N2CCCC2=O)C1` were 6% and -0.92.
In the same order, the values of `CCNC(=O)c1nn(Cc2ccccc2)c2c1C[C@@H](N1CCCC1)CC2` are -11% and 1.41.
Take `Cc1nc(CC(=O)Nc2cc([C@H]3CCCOC3)nn2C)c(C)s1`: the “% Inhibition” value was -7% and the Z score is 1.07.
Taken in the same sequence, the figures for `CN(CC1CCCCC1)C(=O)C1CCC1` were -8% and 0.85.
In the same order, the values of `COc1ccc(OCc2cc(C(=O)NCc3ccncn3)n[nH]2)c(Cl)c1` are -4% and 0.49.
Taken in the same sequence, the figures for `Cc1ccc2ccc(S(=O)(=O)n3ccnc3)cc2c1` were -9% and 1.64.
Consider `CC(=O)N1CCCN(C(=O)Cn2c(C3CC3)nc3ccccc32)CC1`, for which the “% Inhibition” value is listed as 1% and the Z score is on record as -0.21.
Taken in the same sequence, the figures for `N#Cc1ccc(NC(=O)CN2c3ccc(Br)cc3CS2(=O)=O)cc1` were -11% and 1.52.
As to `CC1CCCC(C)N1C(=O)CN(CCO)C1CCCCC1` (centres undefined), the “% Inhibition” value was -4% and the Z score is 0.39.
Consider `CC(C1Cc2ccccc2O1)N(C)Cc1cccn(C(F)F)c1=O` (centres undefined), for which the “% Inhibition” value was 1% and the Z score is on record as -0.11.
Turning to `CC(C)(C)c1cc(=O)n(Cc2c(F)cccc2F)cn1`, the “% Inhibition” value worked out at 5% and the Z score was -0.88.
Take `NS(=O)(=O)c1ccc(F)c(C(F)(F)F)c1`: the “% Inhibition” value is recorded as -5% and the Z score amounted to 0.53.
